Consider 22 molecules from PMC12136788.

The other results are listed elsewhere or left out.

B1: chr11:69651696:69651723:+|3pUTR|ENSG00000110092|msi1_unk|total|mutant (ssRNA)
RNA: GGGAGUUCUACAGUCCGACGAUCGAGGAUCCGGUUCCAUCCUUUACGUGUUUAAAAAAAAGCAUAAAAACAUUUUAAAAACACCGAAAAAUUCAGCAAACCAUUUUUAAAGCCGAAGAGGGUUUCCGGCCGAAAAACAUAUUCCAACAGAGGAUUGAGCAUCA
B2: chr20:37241422:37241523:+|3pUTR|ENSG00000118705|msi1_unk|total|mutant (ssRNA)
RNA: GGGAGUUCUACAGUCCGACGAUCGUAUGAGAAGAAAAAUGGAAAAAAAAAACUUUAUUUAAAAAAGAAAAAAGUCCAGAUUGCCGUUAUACUUUUGCUUGUUUUUCAGUUUCCCCAACACACAGCAGAUACCUGGUGAGCUCACAACAGAGGAUUGAGCAUCA
B3: chr10:104140841:104141001:-|CDS|ENSG00000197748|control|control|control (ssRNA)
RNA: GGGAGUUCUACAGUCCGACGAUCGAAUUUGACAAUCCAAAUUCUUCUUAAACAAGGACAAGUAGAACUGGAAAAUUUCCAGCUAGUACUGGAGUAUUCUGAUGCAAUUCUCAUCAACAAGAACAUAAUUGAAGACUUGAAUUCCAACAGAGGAUUGAGCAUCA
B4: chr4:168926953:168927063:+|3pUTR|ENSG00000129116|msi1_unk|total|mutant (ssRNA)
RNA: GGGAGUUCUACAGUCCGACGAUCCAAAAGAGUUUUCUAACAAGGUUAAUACCUCCGUUCUUAACAUUUUUUUUCUUUAUGUGCCGUGUUUUCAUGCUACCUUGGCCGGAAACUUAUUUACAAACCAUAUUAAAAGGCUAAUUUCAACAGAGGAUUGAGCAUCA
B5: chr11:14877439:14878297:-|three_prime_utr|ENSG00000186104|control|control|control (ssRNA)
RNA: GGGAGUUCUACAGUCCGACGAUCAAUGUUCUUGUUUUUUACAGCAUUGCUUCAGAGGUUUCAUUUGCAUUUUCCACAUGAACUAGUUCCAGAUCUGAAGCCCAGGUUAGGCAUGACAUUGCAGCCCCAACCCUACCUCAUCUGCAACAGAGGAUUGAGCAUCA
B6: chr3:129431351:129431457:-|3pUTR|ENSG00000129071|unk|total|mutant (ssRNA)
RNA: GGGAGUUCUACAGUCCGACGAUCACUUCAAAAAAGCUUAAUUAAGUACAACCAACCACCUUUCCAGCCACCGAGAUUUUAAUCCGCCCAACCCGAAGCCCCGUGUGUGUGCUUUCUUAAUGUGUGUGCCAAUGGUGGAUCUUUCAACAGAGGAUUGAGCAUCA
B7: chr12:48145849:48145950:+|3pUTR|ENSG00000152556|msi1|FALSE|unique (ssRNA)
RNA: GGGAGUUCUACAGUCCGACGAUCCAUGACCAGUUCUGGCCAGGAGCUGGAGGAGCAGGCAGUGGGUGGGAGCUCCUUUUAGGUAGAAUUUAACAUGACUUCUGCCCCAGCUUUAUCUGUCACACAAGGCUGGGCACCUCUAGUCAACAGAGGAUUGAGCAUCA
B8: chr10:74118697:74119064:+|3pUTR|ENSG00000035403|msi1|FALSE|unique (ssRNA)
RNA: GGGAGUUCUACAGUCCGACGAUCGAAGAAAUCACAGAAUCAUAUGAUUCUGCUUUUACCAUGCCCCUGAGCAAUGUCUGUGCUAGGGAAACUUCCCGUCCCAUAUCCUGCCUCAGCCCGCCAAGGUAGCCAUCCCAUGAACACCAACAGAGGAUUGAGCAUCA
B9: chr3:127036428:127036535:+|3pUTR|ENSG00000114554|msi1|FALSE|unique (ssRNA)
RNA: GGGAGUUCUACAGUCCGACGAUCGCGUGUGGCUGGGGCGUGGCCACCACAGAGCACAUGGCUGUGUCUAGGCGCAAGCACUUUAGCAGUAUCUGUUUACAUGCGCAAGGAUCAAGCCGACUACCUGUGCUGUCUACUGGGACACAACAGAGGAUUGAGCAUCA
B10: chr1:26899991:26900442:-|CDS|ENSG00000198746|control|control|control (ssRNA)
RNA: GGGAGUUCUACAGUCCGACGAUCUACCUGGUAGUGAGCGGUAUCCCCUCCGUGUUGCGCUCGGCCCAUUUACGGAGCUAUUUUAGCCAGUUCCGAGAAGAGCGCGGCGGUGGCUUCCUCUGUUUCCACUACCGGCAUCGGCCUCAACAGAGGAUUGAGCAUCA
B11: chr5:115137525:115137627:-|CDS|ENSG00000152503|unk|FALSE|unique (ssRNA)
RNA: GGGAGUUCUACAGUCCGACGAUCUUUAGCAGAAGAGGCUAUUCUUUGUUUUAUCUUAGUGUAAUGGAGAUACUGUUUUUUCUUAGUGUAAUGGAGAGAGGGCUAAAGAAGAAGCAAUUACACAUUUUGAAAAGCUCUUUGAAGCAACAGAGGAUUGAGCAUCA
B12: chr2:86144366:86144519:-|CDS|ENSG00000132305|unk|FALSE|unique (ssRNA)
RNA: GGGAGUUCUACAGUCCGACGAUCAAACACAUUUAAAUUACUGUCAUAUGCUUCCUAUUGCAUUGAGCAUGGUGAUCUGGAGCUAGCAGCAAAGUUUGUCAAUCAGCUGAAGGGGGAAUCCAGACGAGUGGCACAGGACUGGCUCAACAGAGGAUUGAGCAUCA
B13: chr6:138432586:138432687:-|CDS|ENSG00000135540|unk|FALSE|unique (ssRNA)
RNA: GGGAGUUCUACAGUCCGACGAUCGGAGCCCUGGGAAUACAAAUCCUCAGGUAAUGGAAGGGCAUCCCCCCUGAAGCCGCAUUUAGCAACUCCUGGCUAUUCCACUCCCACAAGUAACAUGAGCAGCUGCAGUUUGGACCAAACCAACAGAGGAUUGAGCAUCA
B14: chr8:97851660:97851768:+|3pUTR|ENSG00000104341|msi1_unk|total|mutant (ssRNA)
RNA: GGGAGUUCUACAGUCCGACGAUCAUUAACUGCCGAAUUCUUCCUGUACGAUUGGGGAUAUAAUGGGCUUCACUAACCUUCCCCCGGCAUUGAAACUUCCCCCAAAUCUGAUGGACCCCGAAGUCUGCUUUUGUACCUGCUGGGCAACAGAGGAUUGAGCAUCA
B15: chr19:7961171:7961272:-|3pUTR|ENSG00000066044|msi1|FALSE|unique (ssRNA)
RNA: GGGAGUUCUACAGUCCGACGAUCGGCGGGAUUCCCGCUUCUGAAACUCCCCCUGGAGUCUCACUCCCACACAUGCCCAUAGCUAGCAUUCAACAGAGAACUCUGUCUUAAGCUUCAACUGUGAAAAUGAUGACGGGCUUGUAGCAACAGAGGAUUGAGCAUCA
B16: chr17:5346795:5346911:+|CDS|ENSG00000029725|unk|total|mutant (ssRNA)
RNA: GGGAGUUCUACAGUCCGACGAUCAGAACUGAAUCAUUAUCUGGAAGCUGAGAAAUCUUGCCGGACUGAUCCCGAGAUGUAUGCCGCUGUUUUGAAUACUCAGAAAUCUGUUCUACAGGAAGAUGCUGAGAAACUGCGGAAAGACAACAGAGGAUUGAGCAUCA
B17: chr11:62752106:62752207:-|CDS|ENSG00000185670|msi1|total|mutant (ssRNA)
RNA: GGGAGUUCUACAGUCCGACGAUCGGCUCACAAUGAGGACCUGGCCAAACGCAGCAAACCAGAUCCAGAAGUGGGACCCCUUCCCGGGGUGCAGCCUCUCCCUGGCUCCCCAACAGCAGACAGACAGAGCAGCAGUGGUGGAGGCAACAGAGGAUUGAGCAUCA
B18: ENSG00000154556:stop:overlap|stop_codon|ENSG00000154556|stop_codon|NA|stop_codon (ssRNA)
RNA: GGGAGUUCUACAGUCCGACGAUCCUUCUUCCCCAUCAAGAGCAAAAGUUACUCAGGGCUCAACGGCAACCCCUCCAGUGAGUUAGAUUACUGUAGCACUUACAGACAGCACUUGGAUGUCCCUCGGGACUCACCAAGAGCCAUCAACAGAGGAUUGAGCAUCA
B19: chr14:103559255:103559356:-|3pUTR|ENSG00000166170|msi1|FALSE|unique (ssRNA)
RNA: GGGAGUUCUACAGUCCGACGAUCGCUUAACGGGGUGGGGUUUUUUUGUUUGUUCAGACAGUCUGUUCUUUUGUAAACAUUUUUAGUUGGAAAAACAGCAUCUGCAUUUUCCCCAUCCUCUACGUUUUAGAGAGGAAUCUUGUUCAACAGAGGAUUGAGCAUCA
B20: ENSG00000164751:stop:overlap|stop_codon|ENSG00000164751|stop_codon|NA|stop_codon (ssRNA)
RNA: GGGAGUUCUACAGUCCGACGAUCAAGUACACAGUCUGCAGCCACUGAAAUCAGGAAUCGAGAUGUCAGAAGUAAAUGCUCUUUAGAAACUAAAAUUGCUUCCUUUGAGGAAAAAAAUGCACCGUGUUUAAAUUCUUAAUAUUACAACAGAGGAUUGAGCAUCA
B21: chr10:47502154:47503543:-|CDS|ENSG00000204172|control|control|control (ssRNA)
RNA: GGGAGUUCUACAGUCCGACGAUCGGAGCUGGAUGACUGGCCAGUUGAGCUCAGGAAGGUUAUGUCAUCUAUUGGCAAUGAGCUAGCCAACAGCAUCUGGGAAGGGAGCAGCCAGGGGCAGACAAAACCCUCAAUAAAGUCCACCAACAGAGGAUUGAGCAUCA
B22: chr12:52702891:52703434:-|CDS|ENSG00000189182|control|control|control (ssRNA)
RNA: GGGAGUUCUACAGUCCGACGAUCCUUUGGUCCUUAUUGUCCUCCUGGGGGCAUCCAAGAGGUGACCAUUAACCAGAGCCUCCUAGAGCCACUUCACCUGGAGGUGGACCCUGAAAUUCAGAGGAUCAAGACCCAGGAGCGGGACAACAGAGGAUUGAGCAUCA

In the assay the target is MSI1 full-length (mouse, UniProt Q61474 1-362). Kind of assay: nsRBNS (natural sequence RNA bind-n-seq); RBNS binding buffer (assumed for nsRBNS): 25 mM Tris pH 7.5, 150 mM KCl, 3 mM MgCl2, 0.01% Triton X-100, 500 ug/ml BSA, 20 U/ml SUPERase-In, 4 C; UNK is unkempt and MSI1 is Musashi-1; names of the RNAs are library labels; protein concentration not given here; high values mean tight binding.
Sequence of UniProt Q61474 (Q61474 whole entry): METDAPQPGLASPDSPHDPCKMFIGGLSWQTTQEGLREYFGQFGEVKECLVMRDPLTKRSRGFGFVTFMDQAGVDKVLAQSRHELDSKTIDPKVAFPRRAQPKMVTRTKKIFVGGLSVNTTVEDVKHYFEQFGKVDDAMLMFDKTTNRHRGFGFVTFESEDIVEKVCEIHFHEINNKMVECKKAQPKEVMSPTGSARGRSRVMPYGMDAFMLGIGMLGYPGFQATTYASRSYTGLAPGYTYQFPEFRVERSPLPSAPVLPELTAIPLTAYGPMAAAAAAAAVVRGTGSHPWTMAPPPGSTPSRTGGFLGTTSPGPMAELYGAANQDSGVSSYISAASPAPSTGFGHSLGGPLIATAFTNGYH
For the molecule B1, the binding signal came out at 0.383 enrichment R.

Molecule B2 gave a binding signal of 0.497 enrichment R.

In turn, B3 yielded a binding signal of 0.186 enrichment R.

For the molecule B4, the binding signal turned out to be 0.747 enrichment R.

As for B5, the binding signal amounted to 0.678 enrichment R.

The molecule B6 came in with a binding signal of 0.567 enrichment R.

Take B7: the binding signal came out at 2.3 enrichment R.

Molecule B8 had a binding signal of 0.502 enrichment R.

B9 showed a binding signal of 0.628 enrichment R.

For B10, the binding signal is 0.419 enrichment R.

For the molecule B11, the binding signal amounted to 2.18 enrichment R.

For the molecule B12, the binding signal amounted to 0.43 enrichment R.

Take B13: the binding signal came out at 0.624 enrichment R.

On to B14, for which the binding signal turned out to be 0.464 enrichment R.

Turning to B15, the binding signal was 0.313 enrichment R.

Molecule B16 showed a binding signal of 0.416 enrichment R.

In the case of B17, the binding signal was 0.516 enrichment R.

As for B18, the binding signal amounted to 0.595 enrichment R.

The molecule B19 had a binding signal of 1 enrichment R.

On to B20, for which the binding signal is 0.457 enrichment R.

Consider B21, for which the binding signal was determined as 0.422 enrichment R.

As for B22, the binding signal turned out to be 0.357 enrichment R.
